# Some of the results follow.
# B1: GS7807P-bth-537-23-537 (Bacteroides thetaiotaomicron) (protein)
# chain: NYENINSNPYEAPDLSADGYALGSAMNNLAGCVVSPDVNTAQFTDCLLGGPLGGYFADSNAGFTETISNFNPKDDWSRVFLKSDKIIPTLYSNLTQVKLVSQNTNDPVPYAIAQVIKVAAMHRVTDAFGPIPYSQIGANGEIATPYDSQEVTYNTFFDELNAAIATLNENSNEQLVPTADYIYKGDVKKWIRFANSLKLRLAIRIAYANPVKAQQMAEEAVNPANGGVIESNADNATWNYFETSQNPIYVATRYNQVQTSDHGGVPCLTGGDTHAAADIICYMNGYKDNRREKFFTKSEWAGQDYVGMRRGIVIPELKTTGHKYSGVNIAPTSPLYWMNAAEVAFLRAEGQAVFNFSMGGTAESFYNQGIRLSFEQWGADGVEDYLKDDVNKPTAYTDPAGTNTYQNALSNITIKWNDSADKEEKQERIIVQKWIANWQLGNEAWADFRRTGYPKLIPVKENKSGGVVDSEKGARRMPYPLDEFVSNKANVEYAIANYLHGADNMATDVWWASKK
# How the values were obtained:
# Test in all cases: glycan array binding signal (z-score within array); higher = stronger binding
# Conditions in all cases: glycan notation: IUPAC condensed, linker removed
# Fuc(a1-2)Gal = biological target: Fuc(a1-2)Gal
# How it was run: (§1)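 The binding signal is a Z-score computed within each array. Data were drawn from 3228 arrays in the Consortium for Functional Glycomics database, restricted to those with a known protein sequence. Scores were averaged over arrays of the same protein sequence at different concentrations or buffers, and over linkers, and negative values can be taken as non-binding.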
# Fuc(a1-2)Gal(b1-3)GalNAc = biological target: Fuc(a1-2)Gal(b1-3)GalNAc
# How it was run: as §1
# [1] = biological target: Fuc(a1-2)Gal(b1-3)GalNAc(a1-3)[Fuc(a1-2)]Gal(b1-4)Glc
# How it was run: as §1
# [2] = biological target: Fuc(a1-2)Gal(b1-3)GalNAc(a1-3)[Fuc(a1-2)]Gal(b1-4)GlcNAc
# How it was run: as §1
# [3] = biological target: Fuc(a1-2)Gal(b1-3)GalNAc(b1-3)Gal
# How it was run: as §1
# [4] = biological target: Fuc(a1-2)Gal(b1-3)GalNAc(b1-3)Gal(a1-4)Gal(b1-4)Glc
# How it was run: as §1
# [5] = biological target: Fuc(a1-2)Gal(b1-3)GalNAc(b1-4)[Neu5Ac(a2-3)]Gal(b1-4)Glc
# How it was run: as §1
# Fuc(a1-2)Gal(b1-3)GlcNAc = biological target: Fuc(a1-2)Gal(b1-3)GlcNAc
# How it was run: as §1
# [6] = biological target: Fuc(a1-2)Gal(b1-3)GlcNAc(b1-2)Man(a1-3)[Fuc(a1-2)Gal(b1-3)GlcNAc(b1-2)Man(a1-6)]Man(b1-4)GlcNAc(b1-4)GlcNAc
# How it was run: as §1
# [7] = biological target: Fuc(a1-2)Gal(b1-3)GlcNAc(b1-2)Man(a1-3)[Fuc(a1-2)Gal(b1-3)GlcNAc(b1-2)Man(a1-6)]Man(b1-4)GlcNAc(b1-4)[Fuc(a1-6)]GlcNAc
# How it was run: as §1
# [8] = biological target: Fuc(a1-2)Gal(b1-3)GlcNAc(b1-3)Gal(b1-4)Glc
# How it was run: as §1
# [9] = biological target: Fuc(a1-2)Gal(b1-3)GlcNAc(b1-3)GalNAc
# How it was run: as §1
# [10] = biological target: Fuc(a1-2)Gal(b1-3)GlcNAc(b1-3)[Fuc(a1-2)Gal(b1-3)GlcNAc(b1-6)]GalNAc
# How it was run: as §1
# [11] = biological target: Fuc(a1-2)Gal(b1-3)GlcNAc(b1-3)[Gal(b1-4)GlcNAc(b1-6)]Gal(b1-4)Glc
# How it was run: as §1
# [12] = biological target: Fuc(a1-2)Gal(b1-3)GlcNAc(b1-3)[Neu5Ac(a2-6)Gal(b1-4)GlcNAc(b1-6)]Gal(b1-4)Glc
# How it was run: as §1
# [13] = biological target: Fuc(a1-2)Gal(b1-3)GlcNAc6S
# How it was run: as §1
# [14] = biological target: Fuc(a1-2)Gal(b1-3)[Fuc(a1-4)]GlcNAc
# How it was run: as §1
# [15] = biological target: Fuc(a1-2)Gal(b1-3)[Fuc(a1-4)]GlcNAc(b1-2)Man(a1-3)[Fuc(a1-2)Gal(b1-3)[Fuc(a1-4)]GlcNAc(b1-2)Man(a1-3)]Man(b1-4)GlcNAc(b1-4)GlcNAc
# How it was run: as §1
# [16] = biological target: Fuc(a1-2)Gal(b1-3)[Fuc(a1-4)]GlcNAc(b1-2)Man(a1-3)[Fuc(a1-2)Gal(b1-3)[Fuc(a1-4)]GlcNAc(b1-2)Man(a1-6)]Man(b1-4)GlcNAc(b1-4)[Fuc(a1-6)]GlcNAc(b1-4)[Fuc(a1-6)]GlcNAc
# How it was run: as §1
# [17] = biological target: Fuc(a1-2)Gal(b1-3)[Fuc(a1-4)]GlcNAc(b1-3)[Fuc(a1-3)[Gal(b1-4)]GlcNAc(b1-6)]Gal(b1-4)Glc
# How it was run: as §1
# [18] = biological target: Fuc(a1-2)Gal(b1-3)[Fuc(a1-4)]GlcNAc(b1-3)[Gal(b1-4)GlcNAc(b1-6)]Gal(b1-4)Glc
# How it was run: as §1
# Fuc(a1-2)Gal(b1-4)Glc = biological target: Fuc(a1-2)Gal(b1-4)Glc
# How it was run: as §1
# Fuc(a1-2)Gal(b1-4)Glc6S = biological target: Fuc(a1-2)Gal(b1-4)Glc6S
# How it was run: as §1
# Fuc(a1-2)Gal(b1-4)GlcNAc = biological target: Fuc(a1-2)Gal(b1-4)GlcNAc
# How it was run: as §1
# [19] = biological target: Fuc(a1-2)Gal(b1-4)GlcNAc(b1-2)Man
# How it was run: as §1
# [20] = biological target: Fuc(a1-2)Gal(b1-4)GlcNAc(b1-2)Man(a1-3)[Fuc(a1-2)Gal(b1-4)GlcNAc(b1-2)Man(a1-6)]Man(b1-4)GlcNAc(b1-4)GlcNAc
# How it was run: as §1
# [21] = biological target: Fuc(a1-2)Gal(b1-4)GlcNAc(b1-2)Man(a1-3)[Fuc(a1-2)Gal(b1-4)GlcNAc(b1-2)Man(a1-6)]Man(b1-4)GlcNAc(b1-4)[Fuc(a1-6)]GlcNAc
# How it was run: as §1
# [22] = biological target: Fuc(a1-2)Gal(b1-4)GlcNAc(b1-2)[Fuc(a1-2)Gal(b1-4)GlcNAc(b1-4)]Man(a1-3)[Fuc(a1-2)Gal(b1-4)GlcNAc(b1-2)Man(a1-6)]Man(b1-4)GlcNAc(b1-4)GlcNAc
# How it was run: as §1
# [23] = biological target: Fuc(a1-2)Gal(b1-4)GlcNAc(b1-3)Gal(b1-4)GlcNAc
# How it was run: as §1
# [24] = biological target: Fuc(a1-2)Gal(b1-4)GlcNAc(b1-3)Gal(b1-4)GlcNAc(b1-2)Man(a1-3)[Fuc(a1-2)Gal(b1-4)GlcNAc(b1-3)Gal(b1-4)GlcNAc(b1-2)Man(a1-6)]Man(b1-4)GlcNAc(b1-4)GlcNAc
# How it was run: as §1
binder,measurement,setting,value
B1,glycan array binding signal (z-score),Fuc(a1-2)Gal,-0.386
same,glycan array binding signal (z-score),Fuc(a1-2)Gal(b1-3)GalNAc,-0.356
same,glycan array binding signal (z-score),[1],-0.349
same,glycan array binding signal (z-score),[2],-0.371
same,glycan array binding signal (z-score),[3],-0.348
same,glycan array binding signal (z-score),[4],-0.386
same,glycan array binding signal (z-score),[5],-0.067
same,glycan array binding signal (z-score),Fuc(a1-2)Gal(b1-3)GlcNAc,-0.307
same,glycan array binding signal (z-score),[6],-0.304
same,glycan array binding signal (z-score),[7],0.037
same,glycan array binding signal (z-score),[8],-0.288
same,glycan array binding signal (z-score),[9],-0.362
same,glycan array binding signal (z-score),[10],5.33
same,glycan array binding signal (z-score),[11],-0.1
same,glycan array binding signal (z-score),[12],-0.206
same,glycan array binding signal (z-score),[13],0.003
same,glycan array binding signal (z-score),[14],-0.374
same,glycan array binding signal (z-score),[15],0.553
same,glycan array binding signal (z-score),[16],-0.301
same,glycan array binding signal (z-score),[17],-0.343
same,glycan array binding signal (z-score),[18],-0.384
same,glycan array binding signal (z-score),Fuc(a1-2)Gal(b1-4)Glc,-0.376
same,glycan array binding signal (z-score),Fuc(a1-2)Gal(b1-4)Glc6S,-0.325
same,glycan array binding signal (z-score),Fuc(a1-2)Gal(b1-4)GlcNAc,-0.37
same,glycan array binding signal (z-score),[19],-0.28
same,glycan array binding signal (z-score),[20],1.65
same,glycan array binding signal (z-score),[21],-0.32
same,glycan array binding signal (z-score),[22],-0.271
same,glycan array binding signal (z-score),[23],-0.404
same,glycan array binding signal (z-score),[24],-0.235

# Reference: the supplement of paper PMC8728848
